Laboratory results reported in article PMC12820563, “FoxP3 forms a head-to-head dimer in vivo and stabilizes its multimerization on adjacent microsatellites”.
This is one part of the list.

The sequences below were run against T1, MBP-FoxP1dN (Mus musculus, UniProt P58462 326-579) (assay: PD-seq (MBP pull-down with sequencing); 20 mM Tris-HCl pH 7.5, 100 mM NaCl, 1.5 mM MgCl2, 0.4 uM protein, 0.1 uM dsDNA library, 30 min, room temperature, amylose pull-down; high values mean tight binding). Conditions: protein: recombinant; tags: His6-MBP; chain copies: 2; dsDNA, one strand shown.
T1 sequence: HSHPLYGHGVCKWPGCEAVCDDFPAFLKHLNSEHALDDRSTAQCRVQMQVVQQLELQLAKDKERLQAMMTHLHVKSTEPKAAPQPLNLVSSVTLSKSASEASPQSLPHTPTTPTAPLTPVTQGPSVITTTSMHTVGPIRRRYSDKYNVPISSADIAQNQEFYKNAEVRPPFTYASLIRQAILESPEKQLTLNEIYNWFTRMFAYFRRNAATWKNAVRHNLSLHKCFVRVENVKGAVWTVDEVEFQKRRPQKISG
Summary of the method: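 E. coli-expressed mouse FoxP3 or FoxP1 fragment, N-terminus removed and tagged with His6-MBP, was used at 0.4 µM against 0.1 µM of a Klenow-filled degenerate double-stranded DNA library. After 30 min at room temperature in Tris pH 7.5 buffer with NaCl and MgCl2, complexes were pulled down on amylose resin and washed three times. Binding is pull-down over input reads-per-million enrichment from pooled replicates of the proteinase K-released, PCR-barcoded, Illumina-sequenced DNA.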

Sequence | binding signal
GATGATTGTTCTCCCAGCTGATGAATTGTAACTCTCGAGTAAACAAATTTTCCTAATCTTTCTGTTCAAGCGCCATCTAC | 1.03 RPM ratio (pull-down/input)
GATGATTGTTCTCCCAGCTGATGAATTGGCCTTGTCGAGTAAACAAATTTTCCTAATCTTTCTGTTCAAGCGCCATCTAC | 0.802 RPM ratio (pull-down/input)
GATGATTGTTCTCCCAGCTGATGAATTGCAGCTGTCGAGTAAACAAATTTTCCTAATCTTTCTGTTCAAGCGCCATCTAC | 1.08 RPM ratio (pull-down/input)
GATGATTGTTCTCCCAGCTGATGAATTAGCGTAGTCGAGTAAACAAATTTTCCTAATCTTTCTGTTCAAGCGCCATCTAC | 0.954 RPM ratio (pull-down/input)
GATGATTGTTCTCCCAGCTGATGAATTAAGGGTGTCGAGTAAACAAATTTTCCTAATCTTTCTGTTCAAGCGCCATCTAC | 0.898 RPM ratio (pull-down/input)
GATGATTGTTCTCCCAGCTGATGAATTCGAGATGTCGAGTAAACAAATTTTCCTAATCTTTCTGTTCAAGCGCCATCTAC | 0.873 RPM ratio (pull-down/input)
GATGATTGTTCTCCCAGCTGATGAATTGCCCGTTTCGAGTAAACAAATTTTCCTAATCTTTCTGTTCAAGCGCCATCTAC | 0.92 RPM ratio (pull-down/input)
GATGATTGTTCTCCCAGCTGATGAATTACTGGAATCGAGTAAACAAATTTTCCTAATCTTTCTGTTCAAGCGCCATCTAC | 1.07 RPM ratio (pull-down/input)
GATGATTGTTCTCCCAGCTGATGAATTCAATTCATCGAGTAAACAAATTTTCCTAATCTTTCTGTTCAAGCGCCATCTAC | 0.919 RPM ratio (pull-down/input)
GATGATTGTTCTCCCAGCTGATGAATTCGCGCTTTCGAGTAAACAAATTTTCCTAATCTTTCTGTTCAAGCGCCATCTAC | 0.94 RPM ratio (pull-down/input)
GATGATTGTTCTCCCAGCTGATGAATTAACCACATCGAGTAAACAAATTTTCCTAATCTTTCTGTTCAAGCGCCATCTAC | 1.12 RPM ratio (pull-down/input)
GATGATTGTTCTCCCAGCTGATGAATTATTGAACTCGAGTAAACAAATTTTCCTAATCTTTCTGTTCAAGCGCCATCTAC | 0.961 RPM ratio (pull-down/input)
GATGATTGTTCTCCCAGCTGATGAATTTGTCCACTCGAGTAAACAAATTTTCCTAATCTTTCTGTTCAAGCGCCATCTAC | 1.11 RPM ratio (pull-down/input)
GATGATTGTTCTCCCAGCTGATGAATTGGCATGCTCGAGTAAACAAATTTTCCTAATCTTTCTGTTCAAGCGCCATCTAC | 0.93 RPM ratio (pull-down/input)
GATGATTGTTCTCCCAGCTGATGAATTCAAGTGGTCGAGTAAACAAATTTTCCTAATCTTTCTGTTCAAGCGCCATCTAC | 0.772 RPM ratio (pull-down/input)
GATGATTGTTCTCCCAGCTGATGAATTTCGGACGTCGAGTAAACAAATTTTCCTAATCTTTCTGTTCAAGCGCCATCTAC | 0.832 RPM ratio (pull-down/input)

Sequence | binding signal
GATGATTGTTCTCCCAGCTGATGAATTGAGCATATCGAGTAAACAAATTTTCCTAATCTTTCTGTTCAAGCGCCATCTAC | 0.915 RPM ratio (pull-down/input)
GATGATTGTTCTCCCAGCTGATGAATTGAACAAATCGAGTAAACAAATTTTCCTAATCTTTCTGTTCAAGCGCCATCTAC | 1.12 RPM ratio (pull-down/input)
GATGATTGTTCTCCCAGCTGATGAATTAACTCCTTCGAGTAAACAAATTTTCCTAATCTTTCTGTTCAAGCGCCATCTAC | 0.846 RPM ratio (pull-down/input)
GATGATTGTTCTCCCAGCTGATGAATTGAACTTATCGAGTAAACAAATTTTCCTAATCTTTCTGTTCAAGCGCCATCTAC | 0.878 RPM ratio (pull-down/input)
GATGATTGTTCTCCCAGCTGATGAATTTCATGTATCGAGTAAACAAATTTTCCTAATCTTTCTGTTCAAGCGCCATCTAC | 1.06 RPM ratio (pull-down/input)
GATGATTGTTCTCCCAGCTGATGAATTCTGCAAGTCGAGTAAACAAATTTTCCTAATCTTTCTGTTCAAGCGCCATCTAC | 0.822 RPM ratio (pull-down/input)
GATGATTGTTCTCCCAGCTGATGAATTCGCGCTGTCGAGTAAACAAATTTTCCTAATCTTTCTGTTCAAGCGCCATCTAC | 0.873 RPM ratio (pull-down/input)
GATGATTGTTCTCCCAGCTGATGAATTAGTCCATTCGAGTAAACAAATTTTCCTAATCTTTCTGTTCAAGCGCCATCTAC | 0.914 RPM ratio (pull-down/input)
GATGATTGTTCTCCCAGCTGATGAATTCTTCCTCTCGAGTAAACAAATTTTCCTAATCTTTCTGTTCAAGCGCCATCTAC | 0.877 RPM ratio (pull-down/input)
GATGATTGTTCTCCCAGCTGATGAATTGCAAAGCTCGAGTAAACAAATTTTCCTAATCTTTCTGTTCAAGCGCCATCTAC | 1.09 RPM ratio (pull-down/input)
GATGATTGTTCTCCCAGCTGATGAATTTGCTAGCTCGAGTAAACAAATTTTCCTAATCTTTCTGTTCAAGCGCCATCTAC | 0.906 RPM ratio (pull-down/input)
GATGATTGTTCTCCCAGCTGATGAATTTGGGGGCTCGAGTAAACAAATTTTCCTAATCTTTCTGTTCAAGCGCCATCTAC | 0.823 RPM ratio (pull-down/input)
GATGATTGTTCTCCCAGCTGATGAATTTTGCTGATCGAGTAAACAAATTTTCCTAATCTTTCTGTTCAAGCGCCATCTAC | 1.29 RPM ratio (pull-down/input)
GATGATTGTTCTCCCAGCTGATGAATTTGAAGCCTCGAGTAAACAAATTTTCCTAATCTTTCTGTTCAAGCGCCATCTAC | 0.813 RPM ratio (pull-down/input)
GATGATTGTTCTCCCAGCTGATGAATTGAGATCTTCGAGTAAACAAATTTTCCTAATCTTTCTGTTCAAGCGCCATCTAC | 0.805 RPM ratio (pull-down/input)
GATGATTGTTCTCCCAGCTGATGAATTTAGCACTTCGAGTAAACAAATTTTCCTAATCTTTCTGTTCAAGCGCCATCTAC | 1.02 RPM ratio (pull-down/input)
